Data from PubChem BioAssay AID686978 (National Center for Advancing Translational Sciences (NCATS), 2013).
“And” between values parts separate entries of the source, which are not always exact repeats. Equal values may be shown once. Among all 420,000 compounds or so, about 64,000 (15%) were called active. The shares of active, inactive and inconclusive entries below differ from those in the screen. Calls follow the shape of the dose curve; as a rule, active = well fitted inhibition curve with a large enough effect; inconclusive = small, poorly fitted or top-dose-only effect; inactive = flat fitted curve, though single readings scatter. Potencies of inconclusive entries are left out as doubtful fits.

experiment: qHTS for Inhibitors of human tyrosyl-DNA phosphodiesterase 1 (TDP1): qHTS in cells in absence of CPT; conditions: DT40 Tdp1-/- hTDP1 cells, no CPT, ATP luminescence, 48 h; series mostly up to 46.2 µM; also: nearly all actives have a fitted effect of over 55% in size
How it was run: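 Compound effects on proliferation are scored in DT40 Tdp1-/-;hTDP1 cells in the absence of CPT. ATP levels (CellTiter-Glo luminescence) are recorded after a ≥48 hr, 37 °C incubation.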
Potency is read from the fitted curve at half-maximal effect; tags tell the direction and shape of the fitted curve.

| SMILES | Potency |
| --- | --- |
| CCCCn1c(O)c(C(C)=NC(Cc2c[nH]c3ccccc23)C(=O)OC)c(=O)[nH]c1=O (stereo not given) | inactive |
| Cc1ccc(Cn2nnnc2CN2CCC(n3nnc4ccccc43)CC2)cc1 | inconclusive [inhibitor, partial curve, poor fit] |
| CCOC(=O)C1(CCc2ccccc2)CCN(C(C)CSC)CC1 (stereo not given) | inconclusive [inhibitor, partial curve] |
| COCCOC(=O)C1=C(C)OC(N)=C(C(=O)OC)C12C(=O)Nc1ccccc12 (stereo not given) | inactive |
| CC(O)(c1ccncc1)c1nc(-c2cccc(C(F)(F)F)c2)cs1 (stereo not given) | active: 20.6 µM |
| CCCN(CCc1cccs1)[C@H]1CCc2c(O)cccc2C1 | inconclusive [inhibitor, partial curve, poor fit] |
| COC(=O)[C@H]1C[C@@H]1[C@H](NP(=O)(c1ccccc1)c1ccccc1)c1ccccc1 | inconclusive [inhibitor, single point] |
| O=C(Nc1ccccc1)c1c(O)[nH]c(=S)[nH]c1=O | inconclusive [inhibitor, single point] |
| Clc1ccc(COC(Cn2ccnc2)c2ccc(Cl)cc2Cl)c(Cl)c1 (stereo not given) | active: 11.6 µM and active: 14.6 µM |
| CCN(CC)c1ccc(CN2CC=C(c3ccc(F)cc3)CC2)cc1 | active: 18.4 µM |
| Cc1nn(C)c(C)c1/C=C1/CC2C3CC=C4CC(O)CCC4(C)C3CCC2(C)C1=O (stereo not given) | inconclusive [inhibitor, single point] |
| COc1cc2c(cc1OC)C13CCN4CC5=CCOC6CC(=O)N2C1C6C5C3C4 (stereo not given) (tested in a mixture with another compound) | inconclusive [inhibitor, single point] |
| N#C/C(=C\c1ccc(N2CCCCC2)c([N+](=O)[O-])c1)c1nn(-c2ccccc2)c(N)c1C#N | inconclusive [inhibitor, single point] |
| c1ccc2sc(SNC3CCCCC3)nc2c1 | inconclusive [inhibitor, single point] |
| Cc1cc(C(=O)CN2C(=O)c3ccccc3C2=O)c(C)n1C1CC1 | inconclusive [inhibitor, partial curve, poor fit] |
| C[C@]12CC[C@@H](O)CC1=CCC1C2CC[C@@]2(C)C1CC[C@@H]2N (stereo not given in full) | active: 20.6 µM |
| COc1cccc(CN2CCCCC2c2cccnc2)c1 (stereo not given) | inconclusive [inhibitor, single point] |
| CC12C=CC(=O)C=C1CCC1C2C(=O)CC2(C)C(=O)CCC12 (stereo not given) | inactive |
| COC(=O)C1=C(c2ccc3ccccc3c2)C[C@@H]2CC[C@H]1N2C(=O)NC1Cc2ccccc2C1 | inconclusive [inhibitor, single point] |
| CCCCOC(=O)c1ccccc1N | inactive |
| COc1cccc(CN2CCCC(C(=O)c3ccccc3SC)C2)c1O (stereo not given) | inconclusive [inhibitor, single point] |
| CN1CCN(c2c(F)cc([N+](=O)[O-])c(N)c2Br)CC1 | inconclusive [inhibitor, single point] |
| OC1(CN2CCOCC2)C2CC3CC(C2)CC1C3 (stereo not given) | inactive |
| Cc1c(C(=O)N2CCC(Cc3ccccc3)CC2)sc2ncnc(N3CCC(C)CC3)c12 | inconclusive [inhibitor, single point] |

| SMILES | Potency |
| --- | --- |
| O=C1NCN(c2ccccc2)C12CCN(C(c1ccccc1OC(F)(F)F)c1nnnn1-c1ccc3c(c1)OCCO3)CC2 (stereo not given) | inconclusive [inhibitor, single point] |
| O=C1NC(=O)C(=Cc2coc3ccc(O)cc3c2=O)C(=O)N1 | active: 20.6 µM |
| CCC(=NCCc1ccccc1)c1c(O)n(C2CCCCC2)c(=O)[nH]c1=O | inconclusive [inhibitor, single point] |
| C[C@H](CO)N1C[C@H](C)[C@@H](CN(C)S(=O)(=O)c2cccs2)Oc2ccc(NC(=O)Nc3ccc4c(c3)OCO4)cc2C1=O | active: 18.4 µM |
| O=C(CCCn1c(=O)[nH]c2cc(Cl)ccc2c1=O)N1CCC2(CC1)OCCO2 | inactive |
| O=c1c2ccccc2nc(/C=C/c2ccccc2)n1-c1ccccc1O | active: 23.1 µM |
| CC(C)(C)[C@]1(O)C[C@@H]2OC(=O)C[C@@]23C(=O)O[C@@H]2OC(=O)[C@H](O)[C@]213 | inactive |
| C1=NCCCN2CCCCC12 (stereo not given) | inactive |
| O=C(Nc1cccc(F)c1)N1CC[C@@]2(CCCN(C(=O)Oc3ccccc3)C2)C1 | inactive |
| COc1ccc(CCNc2nc3ccc(Cl)cc3n3cnnc23)cc1OC | active: 16.4 µM |
| CC[N+](C)(CC)CCCCOc1ccc2c(c1)C(=O)c1cc(OCCCC[N+](C)(CC)CC)ccc1-2 | active: 29.1 µM |
| COc1ccccc1OCCCn1cc(C(=O)C2CC2)c2ccccc21 | inconclusive [inhibitor, partial curve, poor fit] |
| O=C1NCCCCC1(Cl)Cl | inactive |
| O=C(O)C1(Br)CC12c1ccccc1-c1ccccc12 (stereo not given) | inactive |
| C[C@@H]1CN([C@@H](C)CO)C(=O)c2c(c3ccccc3n2C)-c2ccccc2CO[C@H]1CN(C)C(=O)[C@H](C)c1ccccc1 | active: 18.4 µM |
| O=C(Nc1ccc(Cl)c(Cl)c1)O/N=C/c1ccncc1 | inconclusive [inhibitor, single point] |
| Cc1ccc(NC(=O)c2cc(-c3cc(Cl)ccc3C)n[nH]2)cc1NS(C)(=O)=O | inconclusive [inhibitor, single point] |
| CC(C)(O)/C=C/C(=O)[C@](C)(O)C1[C@H](O)C[C@@]2(C)C3CC=C4C(C=C(O[C@@H]5O[C@H](CO)[C@@H](O)[C@H](O)[C@H]5O)C(=O)C4(C)C)[C@]3(C)C(=O)C[C@]12C (stereo not given in full) | inconclusive [inhibitor, single point] |
| CCOP1(=S)Oc2cc3c(cc2C(C(=O)OC)(C(F)(F)F)O1)OCO3 (stereo not given) | inconclusive [inhibitor, single point] |
| O=C(NC(=O)c1c(F)cccc1F)Nc1ccc(Cl)c(Oc2ncc(C(F)(F)F)cc2Cl)c1 | inactive |
| COc1ccccc1NC(=O)N1C[C@@H]2C[C@@H](C1)c1cccc(=O)n1C2 | inactive |
| N#CC(C#N)=NNc1ccc(OC(F)(F)F)cc1 | active: 1.12 µM |
| CCCCc1nn2c(=O)cc(COC(=O)Cc3ccccc3)nc2s1 | inactive |
| CCN1CCN(c2cn[nH]c(=O)c2Cl)CC1 | inactive |

| SMILES | Potency |
| --- | --- |
| OC[C@@H]1CN(Cc2ccncc2)C[C@H](n2cnc3c(N4CCN(c5ccccc5)CC4)ncnc32)O1 | active: 2.91 µM |
| O=[N+]([O-])c1cc(S(=O)(=O)/N=C(/c2ccccc2)N2CCOCC2)ccc1Cl | inconclusive [inhibitor, partial curve, poor fit] |
| COc1nc(NCC2CCCO2)nc(N2CC3CC(C2)c2cccc(=O)n2C3)n1 (stereo not given) | inactive |
| C=CCn1c(O)c(C(CC)=NCCCO)c(=O)[nH]c1=O | active: 8.2 µM |
| Cc1ccccc1NC(=O)Cc1nc(COC(=O)c2cc([N+](=O)[O-])ccc2N)cs1 | inconclusive [inhibitor, single point] |
| Ic1cncc(OC[C@@H]2CCN2)c1 | inactive |
| C=C(C)CC1(CC)C(=O)NC(=S)NC1=O | inconclusive [inhibitor, partial curve, poor fit] |
| Cc1ccc(-n2c(/C=C/c3ccccn3)nc3ccccc3c2=O)cc1 | inconclusive [inhibitor, single point] |
| Cc1c(C)c2c(c(C)c1OC(=O)CCC(=O)OCCO)CC[C@@](C)(CCC[C@H](C)CCC[C@H](C)CCCC(C)C)O2 | inconclusive [inhibitor, single point] |
| O=C1NC[C@H](CCCCN2C[C@H](Cc3ccccc3)N(CCC3CCCCC3)C(=O)C2=O)N(CCC2CCCCC2)C1=O | inconclusive [inhibitor, single point] |
| CC(C)(C)P(=O)(N1CCOCC1)N1CCOCC1 | inactive |
| CCC(=O)O[C@H]1CC[C@H]2[C@@H]3CCC4=CC(=O)CC[C@]4(C)[C@H]3CC[C@]12C | inconclusive [inhibitor, single point] |
| CCN(CC)C(=O)c1ccc(NC(=O)CNC(C)c2cccc3ccccc23)cc1 (stereo not given) | inconclusive [inhibitor, single point] |
| CCOC(=O)C(O)(c1ccc(N(CC)C(=O)COc2ccccc2)cc1)C(F)(F)F (stereo not given) | inconclusive [inhibitor, single point] |
| O=C(c1ccccc1F)c1cn(CC(=O)N2CCCC2)c2ccccc12 | active: 16.4 µM |
| COC(=O)C1=C(c2ccc(C(C)=O)cc2)C[C@@H]2CC[C@H]1N2C(=O)N1CCCC1 | inconclusive [inhibitor, single point] |
| COc1ccc(/C=C/C(=O)NC(=S)N2C[C@H]3C[C@H](C2)c2cccc(=O)n2C3)cc1OC | inactive |
| Nc1ccccc1C(=O)OCCc1ccccc1 | inconclusive [inhibitor, single point] |
| C=CCN1C[C@H](C)N([C@@H](c2ccccc2)c2ccc(C(=O)N(CC)CC)cc2)C[C@H]1C | inactive |
| Cc1cc(C)nc(/N=C(\N)c2c(O)[nH]c(=O)[nH]c2=O)n1 | inactive |
| CC(C)NC(=O)C(C)N1CCN(S(=O)(=O)c2ccc3ccccc3c2)CC1 (stereo not given) | active: 14.6 µM |
| c1ccc2c(CCNC3CCCCC3)c[nH]c2c1 | inconclusive [inhibitor, single point] |
